Measured values as given in the supplement of paper PMC11741623.
The list shows a part of the results. Interaction screen of human proteins with wild-type SARS-CoV-2 proteins by split-DHFR complementation in yeast, 1 µg/mL methotrexate. Value = fitness of the pair (three or more lineages) minus that of the viral protein without a human partner, on a scale set by negative (0) and fused positive (1) controls, mean of up to three cultures; higher = more likely to interact. Active = false discovery rate below 0.05 (one-sided t-test) in at least one culture. Nearly all pairs are not hits, and differences among them are mostly noise (correlation between cultures about 0.3); most hits were seen in one culture only. Human sequences are the Swiss-Prot entries looked up by gene name; the clone may be another isoform. NSP2 values were corrected by the authors for a growth advantage. Listed are human proteins with a hit and a random twelfth of the others.

Tests used:
Experiment in all cases: yeast fitness gain over the viral ORF with no human partner (scaled fitness); higher = more likely to interact
SARS-CoV-2 M = molecular target: SARS-CoV-2 M
Experimental: (§1)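 Split mouse DHFR complementation in pooled diploid yeast: human ORFeome clones carry one fragment and viral ORFs the other; barcoded lineages compete in 1 µg/mL methotrexate and fitness is read by barcode sequencing in up to three cultures.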

SARS-CoV-2 N = molecular target: SARS-CoV-2 N
Experimental: as §1

SARS-CoV-2 NSP1 = molecular target: SARS-CoV-2 NSP1
Experimental: as §1

SARS-CoV-2 NSP10 = molecular target: SARS-CoV-2 NSP10
Experimental: as §1

SARS-CoV-2 NSP12 = molecular target: SARS-CoV-2 NSP12
Experimental: as §1

SARS-CoV-2 NSP13 = molecular target: SARS-CoV-2 NSP13
Experimental: as §1

SARS-CoV-2 NSP2 = molecular target: SARS-CoV-2 NSP2
Experimental: as §1

SARS-CoV-2 NSP8 = molecular target: SARS-CoV-2 NSP8
Experimental: as §1

SARS-CoV-2 ORF10 = molecular target: SARS-CoV-2 ORF10
Experimental: as §1

SARS-CoV-2 ORF3A = molecular target: SARS-CoV-2 ORF3A
Experimental: as §1

SARS-CoV-2 ORF3B = molecular target: SARS-CoV-2 ORF3B
Experimental: as §1

SARS-CoV-2 ORF6 = molecular target: SARS-CoV-2 ORF6
Experimental: as §1

SARS-CoV-2 ORF7B = molecular target: SARS-CoV-2 ORF7B
Experimental: as §1

SARS-CoV-2 ORF8 = molecular target: SARS-CoV-2 ORF8
Experimental: as §1

SARS-CoV-2 ORF9B = molecular target: SARS-CoV-2 ORF9B
Experimental: as §1

SARS-CoV-2 NSP15 = molecular target: SARS-CoV-2 NSP15
Experimental: as §1

SARS-CoV-2 NSP5 = molecular target: SARS-CoV-2 NSP5
Experimental: as §1

SARS-CoV-2 NSP6 = molecular target: SARS-CoV-2 NSP6
Experimental: as §1

[1] = molecular target: SARS-CoV-2 ORF9Bwu (the 73-codon ORF)
Experimental: as §1

SARS-CoV-2 S = molecular target: SARS-CoV-2 S
Experimental: as §1

SARS-CoV-2 NSP16 = molecular target: SARS-CoV-2 NSP16
Experimental: as §1

SARS-CoV-2 NSP7 = molecular target: SARS-CoV-2 NSP7
Experimental: as §1

SARS-CoV-2 ORF7A = molecular target: SARS-CoV-2 ORF7A
Experimental: as §1

SARS-CoV-2 NSP14 = molecular target: SARS-CoV-2 NSP14
Experimental: as §1

SARS-CoV-2 NSP9 = molecular target: SARS-CoV-2 NSP9
Experimental: as §1

Measured: yeast fitness gain

B1: VPS37A, Q8NEZ2 (protein)
chain: MSWLFPLTKSASSSAAGSPGGLTSLQQQKQRLIESLRNSHSSIAEIQKDVEYRLPFTINNLTININILLPPQFPQEKPVISVYPPIRHHLMDKQGVYVTSPLVNNFTMHSDLGKIIQSLLDEFWKNPPVLAPTSTAFPYLYSNPSGMSPYASQGFPFLPPYPPQEANRSITSLSVADTVSSSTTSHTTAKPAAPSFGVLSNLPLPIPTVDASIPTSQNGFGYKMPDVPDAFPELSELSVSQLTDMNEQEEVLLEQFLTLPQLKQIITDKDDLVKSIEELARKNLLLEPSLEAKRQTVLDKYELLTQMKSTFEKKMQRQHELSESCSASALQARLKVAAHEAEEESDNIAEDFLEGKMEIDDFLSSFMEKRTICHCRRAKEEKLQQAIAMHSQFHAPL
inactive: SARS-CoV-2 M 0.0736 | SARS-CoV-2 N -0.113 | SARS-CoV-2 NSP1 = 0.139 | SARS-CoV-2 NSP10 = -0.0967 | SARS-CoV-2 NSP12 = -0.0265 | SARS-CoV-2 NSP13 = 0.000597 | SARS-CoV-2 NSP2 = -0.196 | SARS-CoV-2 NSP8 = 0.0268 | SARS-CoV-2 ORF10 = -0.0519 | SARS-CoV-2 ORF3A 0.0692 | SARS-CoV-2 ORF3B -0.0246 | SARS-CoV-2 ORF6 = -0.00251 | SARS-CoV-2 ORF7B 0.0606 | SARS-CoV-2 ORF8 = 0.0757 | SARS-CoV-2 ORF9B 0.027

B2: WDR37, Q9Y2I8 (protein)
chain: MPTESASCSTARQTKQKRKSHSLSIRRTNSSEQERTGLPRDMLEGQDSKLPSSVRSTLLELFGQIEREFENLYIENLELRREIDTLNERLAAEGQAIDGAELSKGQLKTKASHSTSQLSQKLKTTYKASTSKIVSSFKTTTSRAACQLVKEYIGHRDGIWDVSVAKTQPVVLGTASADHTALLWSIETGKCLVKYAGHVGSVNSIKFHPSEQLALTASGDQTAHIWRYAVQLPTPQPVADTSISGEDEVECSDKDEPDLDGDVSSDCPTIRVPLTSLKSHQGVVIASDWLVGGKQAVTASWDRTANLYDVETSELVHSLTGHDQELTHCCTHPTQRLVVTSSRDTTFRLWDFRDPSIHSVNVFQGHTDTVTSAVFTVGDNVVSGSDDRTVKVWDLKNMRSPIATIRTDSAINRINVCVGQKIIALPHDNRQVRLFDMSGVRLARLPRSSRQGHRRMVCCSAWSEDHPVCNLFTCGFDRQAIGWNINIPALLQEK
inactive: SARS-CoV-2 M 0.117 | SARS-CoV-2 NSP1 = -0.108 | SARS-CoV-2 NSP12 = 0.151 | SARS-CoV-2 NSP13 = -0.0429 | SARS-CoV-2 NSP15 = -0.199 | SARS-CoV-2 NSP2 = -0.269 | SARS-CoV-2 NSP5 = 0.0274 | SARS-CoV-2 NSP6 = 0.0268 | SARS-CoV-2 ORF10 = -0.154 | SARS-CoV-2 ORF3B -0.0872 | SARS-CoV-2 ORF6 = -0.0336 | SARS-CoV-2 ORF7B -0.00909 | SARS-CoV-2 ORF8 = -0.0081 | SARS-CoV-2 ORF9B -0.001 | [1] -0.0364 | SARS-CoV-2 S -0.093

B3: INSL3, P51460 (protein)
chain: MDPRLPAWALVLLGPALVFALGPAPTPEMREKLCGHHFVRALVRVCGGPRWSTEARRPATGGDRELLQWLERRHLLHGLVADSNLTLGPGLQPLPQTSHHHRHHRAAATNPARYCCLSGCTQQDLLTLCPY
inactive: SARS-CoV-2 N 0.0223 | SARS-CoV-2 NSP1 = 0.00701 | SARS-CoV-2 NSP10 = -0.0214 | SARS-CoV-2 NSP12 = -0.021 | SARS-CoV-2 NSP13 = -0.169 | SARS-CoV-2 NSP15 = -0.0785 | SARS-CoV-2 NSP16 = -0.0849 | SARS-CoV-2 NSP2 = -0.186 | SARS-CoV-2 NSP5 = -0.0314 | SARS-CoV-2 NSP6 = 0.0246 | SARS-CoV-2 NSP7 = -0.0488 | SARS-CoV-2 NSP8 = -0.0189 | SARS-CoV-2 ORF10 = 0.0423 | SARS-CoV-2 ORF3B 0.0187 | SARS-CoV-2 ORF6 = 0.0179 | SARS-CoV-2 ORF7A -0.0344 | SARS-CoV-2 ORF7B -0.0449 | SARS-CoV-2 ORF8 = -0.116 | SARS-CoV-2 ORF9B 0.0337 | [1] 0.0261 | SARS-CoV-2 S -0.147

B4: UBXN4, Q92575 (protein)
chain: MLWFQGAIPAAIATAKRSGAVFVVFVAGDDEQSTQMAASWEDDKVTEASSNSFVAIKIDTKSEACLQFSQIYPVVCVPSSFFIGDSGIPLEVIAGSVSADELVTRIHKVRQMHLLKSETSVANGSQSESSVSTPSASFEPNNTCENSQSRNAELCEIPPTSDTKSDTATGGESAGHATSSQEPSGCSDQRPAEDLNIRVERLTKKLEERREEKRKEEEQREIKKEIERRKTGKEMLDYKRKQEEELTKRMLEERNREKAEDRAARERIKQQIALDRAERAARFAKTKEEVEAAKAAALLAKQAEMEVKRESYARERSTVARIQFRLPDGSSFTNQFPSDAPLEEARQFAAQTVGNTYGNFSLATMFPRREFTKEDYKKKLLDLELAPSASVVLLPAGRPTASIVHSSSGDIWTLLGTVLYPFLAIWRLISNFLFSNPPPTQTSVRVTSSEPPNPASSSKSEKREPVRKRVLEKRGDDFKKEGKIYRLRTQDDGEDENNTWNGNSTQQM
inactive: SARS-CoV-2 N 0.0552 | SARS-CoV-2 NSP14 = -0.0267 | SARS-CoV-2 NSP15 = -0.0686 | SARS-CoV-2 NSP16 = 0.123 | SARS-CoV-2 NSP6 = -0.0324 | SARS-CoV-2 NSP9 = -0.00409 | SARS-CoV-2 ORF3A -0.0308 | SARS-CoV-2 ORF7A -0.0436 | [1] 0.00644
